Read counts are not given, so values of variants with three or more changes are uncertain.
B1: CPEB3 Ribozyme (parent)
chain: UAACAGGGGGCCACAGCAGAAGCGUUCACGUCGCAGCCCCUGUCAGAUUCUGGUGAAUCUGCGAAUUCUGCUGUAUAUCUC

Variants of: B1
Assay: self-cleavage, relative activity (ratio to wild type); higher = more cleavage; in vitro, sequencing
How it was run: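 After error-prone PCR and barcoding, CPEB3 ribozyme mutant libraries were transcribed with T7 RNA polymerase at 37°C for 5 hours, then given 15 min with DNase I before an EDTA stop, and they cleaved during both steps. Reverse transcription with template switching preceded Illumina sequencing. Relative activity divides a variant's cleaved/total read fraction by the unmutated ribozyme's. At least 5 reads were required per variant, and three batches were averaged.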

Variant | self-cleavage
UAACAGGGGGCCACAGCUGUAGCGUUCACGUCGCAGCCCCUGUCAGAUUCUGGUGGAUCUGCGAAUUCUGCUGUAUGUCUC | 0.05
UAACAGGGGGCCACAGCUGUAGCGUUCAUGUCGCAGCCCCUGUCAGAUUCUGGUGAAUCUGCGAAUUCUGCUGUAUAUCUC | 0.15
UAACAGGGGGCCACAGCUGUAGCGUUCACUUCGCAGCCCCUAUCAGAUUCUGGUGAAUCUGCGAAUUCUGCUGUAUAUCUC | 0.13
UAACAGGGGGCCACAGCUGUAGCGUUCACGUCGCAGCCCCUGUCAGAUUCUUGUGAAUCUGCGAAUUCUGCUGUAUAUCUC | 0.15
UAACAGGGGGCCACAGCUGUAGCGAUCACGUCGCAGCCCCUGUCAGAUUCCGGUGAAUCUGCGAAUUCUGCUGUAUAUCUC | 0
UAACAGGGGGCCACAGCUGUAGCGCCCACGUCGCAGCCCCAGUCAGAUUCUGGUGAAUCUGCGAAUUCUGCUGUAUAUCUC | 0.05
UAACAGGGGGCCACAGCUGUAGCGUUCACGUCGCAGCCCCUGUCAGACUCUGGUGAAUCUGCGAAUUCUGCUGUAUAUCUC | 0.18
UAACAGGGGGCCACAGCUGAGGCGUUCACGUCGCAGCCCCUGUCAGAUUCUGGUGGAUCUGCGUAUUCUGCUGUAUAUCUC | 0.28
UAACAGGGGGCCACAGCUGAGGCGUUCACGUCGCAGCGCCUGUCAGAUUCUGGUGAAUCUGCGAAUUCCGCUGUAUAUCUU | 0.04
UAACAGGGGGCCACAGCUGAGUCGUUCACGUCCCGGCCCCUGUCAGAUUCUGGUUAGUCUGCGAAUUCUGCUGUAUAUCUC | 0.15
UAACAGGGGGCCACAGCUGAGGCAUUCACGUCGCAGCCCCUGUCAGAUUCUGGUGAAUCUGCGAAUUCUGCUGAAUAUCUC | 0.25
UAACAGGGGGCCACAGCUGAGGCGUUCACGUCACAGCCCCUGUCAGCUUCUGGUGAAUCUGCGAAUUCUGCUGUAUAUCCC | 0.04
UAACAGGGGGCCACAGCUGAGGCGUCCACGUCGCAGCCCCUGUCAGAUUCUGGUGAAUCUGCGAAUUCUGCUGCAUAUCUC | 0.31
UAACAGGGGGCCACAGCUGAGGCGUUCACGCCGCAGCCCCUGUCAGAUUCUGGUGAAUCCGCGAAUUCUGCUGUAUAUCUC | 0.14
UAACAGGGGGCCACAGCUGAGGCGUUCACGUCGCAGCCCCUGCCAGACUCUGGUGAAUCUGCGAAUUCUGCUGUAUAUCUC | 0.06
UAACAGGGGGCCACAGCUGAUGCGUCCACGCCGCAGCCCCUGUCAGAUUCCGGUGAAUCUGCGAAUUCUGCCGAAUAUCUC | 0.17
UAACAGGGGGCCACAGCUGAUGCGUUCACGUCGCAGCCCCUGCCAGAUUCUGGUGAACCUGCGAAUUCUGCUGUAUAUCUC | 0.14

Variant | self-cleavage
UAACAGGGGGCCACAGCUGAAGCGUUCGCGUCGCGGCCCCUGUCAGAUUCUGGUGAAUCUGCGAAUUCUGCUGUAUAUCUC | 0.42
UAACAGGGGGCCACAGCUGAAGCGUUCGCGUCGCUGCCCCUGUCAGAUUCUGGUGAAUCUGCGAAUUCUGCUGUAUGUCUC | 0.24
UAACAGGGGGCCACAGCUGAAGCGUUCGCGUCGCAGCCCCUGUCAGAUUCUGGUGAAUCUGCGAGUUCGGCUGUACAUCUC | 0.1
UAACAGGGGGCCACAGCUGAAGCGUUCGCGUCGCAGCCCCUGUUAGAUUCUGGUGAAUCUGCGAAUUCUGCUGUAUAUCUC | 0.21
UAACAGGGGGCCACAGCUGAAGCGUUCGCAUCGCAGCCCCUGUCAUAUUCUGGUGAAUCUGCGAACUCUGCUGUAUAGCUC | 0.05
UAACAGGGGGCCACAGCUGAAGCGUUCGCGUCGCAGCCCCUGUCAGAUUCUGGUGAAUCUGCGAACUCUGCUGUAUAUCUC | 0.18
UAACAGGGGGCCACAGCUGAAGCGUUCGCGUCGCAGCCCCUGUCAGAUUCUGGUGAAUCUGCGAAUGCUGCUGUAUAUCUC | 0.11
UAACAGGGGGCCACAGCUGAAGCGUUCGCGUCGCAGCCCCUGUCAGAUUCUGGUGAAUCUGCGAAUUCGGCUGUAUAUCUC | 0.92
UAACAGGGGGCCACAGCUGAAGCGUUCUCGUCGCGGCCCCUGUCAGAUUCUGGUGGAUCUGCGAAUUCCGCUGUAUAUCUC | 0.69
UAACAGGGGGCCACAGCUGAAGCGUUCUCGACGCAGCCCCUGUCAGAUUCUGGUGAAUCUGCGUAUUCUGCUGUAUAUCUC | 0.15
UAACAGGGGGCCACAGCUGAAGCGUUCUCGUCGCAGCCCCUGUCAGAUUCAGGUGAACCUGCGAUUUCAGCUGUAUAUCUC | 0.23
UAACAGGGGGCCACAGCUGAAGCGUUCUCGUCGCAGCCCCUGUCAGAUUCUGGUGAACCUGCGAUUUCUGCUGUAUAUCUC | 0.17
UAACAGGGGGCCACAGCUGAAGCGUUCUCGUCGCAGCCCCUGUCAGAUUCUGGUGAAUCUGCGAACUCUGCUGUAUAUCUC | 0.18
UAACAGGGGGCCACAGCUGAAGCGUUCUCGUCGCAGCCCCUGUCAGAUUCUGGUGAAUCUGCGAAUUCUGCUGUAUACCUC | 0.21
UAACAGGGGGCCACAGCUGAAGCGUUCACGUCGCGGCCCCUGUCAGAUUCUGGUGAAUCUGCGAGUUCUGCUGUAUAUCUC | 0.42
UAACAGGGGGCCACAGCUGAAGCGUUCACGUCGCGGACCCUGUCAGAUUCUGGUGAAUCUACGAAUUCUGCUGUAUAUCUC | 0.24
UAACAGGGGGCCACAGCUGAAGCGUUCACGUCGCGGCCGCUGUCAGAUUCUGGUGAAUCUGCGAAUUCUGCCGUAUAUCAC | 0.34

— the RNAGym collection of RNA variant scans (doi:10.1093/nar/gkz1192)
